Source: the supplement of paper PMC4166925
± gives the standard deviation of the averaged measurements. Over roughly 33,000 sequences, “E-score (dimensionless, -0.5 to 0.5)” has its median near -0.046; the highest 2% begin near 0.36. The list shows a part of the results.

system: T1, SpTbr T-box DNA-binding domain (GST fusion); experiment: PBM E-score of 8-mer (E-score (dimensionless, -0.5 to 0.5)); Tbr is Tbrain of the sea star Patiria miniata (Pm) or the sea urchin Strongylocentrotus purpuratus (Sp); higher = stronger binding preference; most listed sequences are background and not binding sites; details: the construct has about 5 more residues each side
T1 sequence: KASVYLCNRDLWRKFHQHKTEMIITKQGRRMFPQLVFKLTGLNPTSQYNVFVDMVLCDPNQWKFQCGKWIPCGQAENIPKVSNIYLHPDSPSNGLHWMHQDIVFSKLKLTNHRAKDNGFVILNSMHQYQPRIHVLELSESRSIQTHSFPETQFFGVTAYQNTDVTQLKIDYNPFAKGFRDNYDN
Outline: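 GST-fused Tbr T-box DNA-binding domains (the whole T-box plus about five flanking residues) were expressed in BL21 E. coli at 20 °C and purified by glutathione affinity chromatography. Universal Agilent oligonucleotide arrays were made double-stranded by primer extension, incubated with 200 nM protein in PBS (pH 7.5), then scanned and quantified. Every ungapped 8-mer was scored from probe intensities. The Universal PBM Analysis Suite gave each word an enrichment E-score, averaged over duplicate arrays.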

| Sequence | PBM E-score of 8-mer |
| --- | --- |
| AGCGCCCG | 0.0858 ± 0.0036 |
| ACACCGTC | 0.297 ± 0.01 |
| CTAGTAGA | -0.0229 ± 0.019 |
| CACGGCCC | -0.00754 ± 0.068 |
| CTTGGGAA | -0.0381 ± 0.048 |
| AATAGAAC | -0.0992 ± 0.11 |
| CAGTTGAC | 0.249 ± 0.051 |
| CCGCGCCA | 0.0588 ± 0.039 |
| GCGTTGAA | 0.136 ± 0.018 |
| CACGTTCG | 0.172 ± 0.046 |
| CTAGGAGA | -0.129 ± 0.024 |
| AACCGCGT | -0.085 ± 0.07 |
| ATACAAAC | -0.0839 ± 0.019 |
| GTACTTAA | -0.0822 ± 0.049 |
| CACAGGTC | 0.198 ± 0.045 |
| ATAGGCCG | -0.143 ± 0.01 |
| GAATTGGA | 0.0696 ± 0.063 |
| CGTTGCCC | -0.118 ± 0.085 |
| CCCCTAAG | -0.17 ± 0.067 |
| CACGTAGC | 0.104 ± 0.01 |
| CATGAACC | -0.0306 ± 0.054 |
| TGACTCCA | -0.143 ± 0.087 |

| Sequence | PBM E-score of 8-mer |
| --- | --- |
| TTAATAAA | -0.296 ± 0.074 |
| GTAATGGA | -0.21 ± 0.055 |
| GACCATGC | -0.0495 ± 0.057 |
| AAGACTTC | -0.0418 ± 0.027 |
| ACTCCTGG | 0.189 ± 0.013 |
| CCGATACG | -0.224 ± 0.0047 |
| CCGTCAGG | 0.166 ± 0.042 |
| AGCCTGCC | 0.00934 ± 0.038 |
| GGCGCCGA | 0.145 ± 0.025 |
| AACGAACA | -0.0638 ± 0.002 |
| CAACGTCA | 0.0949 ± 0.013 |
| TCCAAAAA | -0.169 ± 0.0031 |
| GAGACCGA | -0.0681 ± 0.039 |
| GCCTAGGC | -0.117 ± 0.01 |
| ACGTCTAG | -0.166 ± 0.072 |
| CCTGGCTC | -0.0466 ± 0.012 |
| AGTGACCG | 0.103 ± 0.0031 |
| ACTCACGG | 0.061 ± 0.057 |
| ACCGTGGA | 0.11 ± 0.02 |
| CAGTAAGA | -0.207 ± 0.047 |
| CCGACGAA | 0.0782 ± 0.019 |
| AGTGGTGC | 0.178 ± 0.005 |

| Sequence | PBM E-score of 8-mer |
| --- | --- |
| AGGTGAGC | 0.2602 ± 0.00092 |
| ACCCCCTG | 0.0826 ± 0.062 |
| GCCTGACC | -0.0747 ± 0.025 |
| GTCAACCA | 0.0318 ± 0.012 |
| ATGACGAC | 0.143 ± 0.035 |
| ACTAAACA | 0.00628 ± 0.024 |
| CGTCATTA | -0.0133 ± 0.08 |
| AACCAACA | 0.0701 ± 0.037 |
| ATCATCCC | -0.109 ± 0.0033 |
| CGTTTATC | 0.102 ± 0.038 |
| ATAGTGGG | -0.0426 ± 0.049 |
| ACCACGCG | 0.162 ± 0.0086 |
| CGCGTGGA | 0.109 ± 0.06 |
| CGTGGCAG | 0.0343 ± 0.083 |
| GTTAGGGA | -0.0922 ± 0.023 |
| AGCATTTG | -0.0807 ± 0.036 |
| AAAGAAGG | -0.217 ± 0.067 |
| GCGAAAGC | 0.158 ± 0.02 |
| AGTACAGG | -0.0815 ± 0.027 |
| ATAATGTC | -0.19 ± 0.052 |
| CCGTAACA | 0.182 ± 0.035 |
| CGGCTGGC | -0.0499 ± 0.019 |

| Sequence | PBM E-score of 8-mer |
| --- | --- |
| ACTTCCAA | -0.225 ± 0.051 |
| ATGCACAT | -0.0918 ± 0.012 |
| ATTTGTCA | 0.216 ± 0.09 |
| ATGTAAGA | -0.246 ± 0.0067 |
| ACACGACG | 0.0924 ± 0.0099 |
| AATCAAGT | -0.126 ± 0.041 |
| AACTATGT | 0.131 ± 0.026 |
| ACTAGAAT | -0.192 ± 0.017 |
| CCGGGGAG | -0.189 ± 0.0083 |
| ACCAGGGA | -0.0386 ± 0.15 |
| GTGACTCA | 0.121 ± 0.012 |
| ACCACCTG | 0.224 ± 0.037 |
| GCAGTCAC | 0.179 ± 0.028 |
| CAAACCGC | 0.074 ± 0.0091 |
| ACGCGCAA | 0.0442 ± 0.065 |
| CACTCATA | 0.207 ± 0.023 |
| CGATGCCA | 0.0144 ± 0.043 |
| AATTGTTG | 0.136 ± 0.032 |
| GATAAAGA | -0.139 ± 0.08 |
| ACAGATTG | -0.0832 ± 0.063 |
